Screen size: about 45,000 compounds; about 200 (0.44%) were called active. About 7% were inconclusive and are not listed. Calls come from the whole dose curve; as a rule, active = well fitted activation curve with a large enough effect; inconclusive = small, poorly fitted or top-dose-only effect; inactive = no such curve, though single readings can be large or run the other way. This is one part of the list.
assay: qHTS of TDP-43 Inhibitors: NCGC Sytravon Library Screen; details: yeast TDP-43 toxicity rescue, BacTiter-Glo growth, 24 h; series mostly up to 46.1 µM; growth rescue (activation): at the top concentration; note: 0% is about no effect; nearly all actives have a fitted effect of over 55% in size
From the text: The goal of this project is to identify new chemical probes capable of reversing the toxicity associated with TDP-43 which is associated with frontotemporal lobar degeneration and amyotrophic lateral sclerosis. These compounds will provide a complementary approach to deciphering the tangled mechanisms of toxicity and protection that we have uncovered through genome-wide genetic screens and are beginning to uncover in a large-scale proteomics analysis with mass spectroscopy. To this end, a miniaturized assay was developed to be screened against the Molecular Libraries Small Molecule Repository (MLSMR) to discover TDP-43 inhibitors. Please note that in the set-up this yeast-based assay compounds that inhibit as TDP-43, have a read-out as activators. NIH Chemical Genomics Center [NCGC] NIH Molecular Libraries Probe Centers Network [MLPCN] Assay Submitter (PI): Susan Lindquist, Whitehead Institute/MIT MLPCN Grant: R21 NS060957
Dispense 2.5 microL yeast galactose medium per 1536-well plate, pin compound, dispense 2.5 microL TDP-43 expressing yeast in galactose medium at OD600=0.02 (pregrown in raffinose medium to mid-log phase) per well, incubate for 24 hr at 30 deg C, and cell growth will be measured using 5 microL of Bactiter/Glo reagent to entire plate and read using Luminescence Protocol in ViewLux.

Row | SMILES | growth rescue (activation)
1 | O=C(CSc1nnc(NC(=O)c2ccco2)s1)NC1CCCC1 | inactive: 15%
2 | CC[n+]1c(S(=O)(=O)[O-])ccc2ccc(C)cc21 | inactive: 29.8%
3 | O=C(Cc1ccccc1)NNC(=S)NC(=O)c1cccnc1 | inactive: 7.3%
4 | Cc1ccc(N(C(=O)c2csnn2)C(C(=O)NC2CCCCC2)c2ccco2)cc1 (centres undefined) | inactive: -16%
5 | Cc1cc(NC(=O)C(C)Sc2nc(-c3ccccc3)cc(=O)[nH]2)no1 (centres undefined) | inactive: -25.3%
6 | Cc1cc(C)cc(Oc2nc3ccccn3c(=O)c2/C=C(\C#N)C(=O)NC2CCS(=O)(=O)C2)c1 (centres undefined) | inactive: 4.34%
7 | CSc1ccc(CNC(=O)C2CCC(=O)N(Cc3cccc(F)c3)C2)cc1 (centres undefined) | inactive: 7.46%
8 | CCOC(=O)CNc1nc(Cl)nc(NC(C)(C)C)n1 | inactive: 9.56%
9 | CC(C)NC(=O)c1cc(C2CCCCN2C(=O)c2ccccc2)on1 (centres undefined) | inactive: 8.72%
10 | CCCNC(=O)Cn1cnc2sc(C(=O)N3CCN(Cc4ccc5c(c4)OCO5)CC3)c(C)c2c1=O | inactive: -2.47%
11 | N#C/C(=C\c1ccc(-c2ccccc2)cc1)c1nc(-c2ccco2)cs1 | inactive: -0.484%
12 | CCOc1ccc(N(CC(=O)NC2CCCC2)C(=O)CCC(=O)Nc2nc(C)cs2)cc1 | inactive: 1.43%
13 | COCCNC(=O)/C(C#N)=C/c1cn(CC(=O)NCc2ccco2)c2ccccc12 | inactive: 8.4%
14 | Cc1ccc(NC(=O)C[n+]2cc(-c3ccccc3)n3c2CCC3)c(C)c1 | inactive: -2.92%
15 | COc1ccc2cc(C3CC(c4ccco4)=NN3C(=O)CCC(=O)O)c(Cl)nc2c1 (centres undefined) | inactive: 1.96%
16 | COc1cc(/C=N/O)cc(Br)c1OC | inactive: 31.1%
17 | CCCNC(=O)Cn1cnc([N+](=O)[O-])n1 | inactive: -0.029%
18 | CC(NC(=O)CSc1nnc(-c2cccc(S(=O)(=O)N3CCCCC3)c2)o1)C12CC3CC(CC(C3)C1)C2 (centres undefined) | inactive: 17.1%
19 | COc1cc(/C=C/c2nc(N)nc(-c3ccccc3O)n2)cc(OC)c1OC | inactive: 12.7%
20 | CC1CC1C(=O)OCC(=O)NCc1ccccc1 (centres undefined) | inactive: 19.6%
21 | COc1ccc(-c2cn[nH]c2-c2ccc(OCc3ccccc3)cc2O)cc1 | inactive: 29.9%
22 | CCC(C)NC(=S)N1CCN(Cc2ccccc2)CC1 (centres undefined) | inactive: -4.88%
23 | CC(C)(C)C1CCC(=NNc2ccc(S(N)(=O)=O)cc2[N+](=O)[O-])CC1 (centres undefined) | inactive: -2.63%
24 | NC(=O)C1CCN(S(=O)(=O)Cc2ccccc2Cl)CC1 | inactive: -12.3%
25 | Nc1nnc(Cc2cccc(Br)c2)s1 | inactive: 15.4%
26 | CCn1c(SCc2nc3ccccc3s2)nc2cc(S(=O)(=O)N3CCOCC3)ccc21 | inactive: 19.4%
27 | COC(=O)c1cc2n(n1)CCCNC2=O | inactive: -10.9%

Row | SMILES | growth rescue (activation)
28 | CCN(CC)CCN1C(=O)C(=O)/C(=C(/O)c2ccc3c(c2)CC(C)O3)C1c1ccc(OC)cc1 (centres undefined) | inactive: 6.32%
29 | CCOC(=O)CNC(=S)N(CCCN1CCCCCC1)Cc1cccs1 | inactive: 6.74%
30 | N=c1n(CCCOc2ccccc2Cl)c2ccccc2n1CC(N)=O | inactive: 12.5%
31 | COc1ccccc1C(CCN(Cc1ccccc1)C(C)=O)c1ccco1 (centres undefined) | inactive: -24.5%
32 | CCN(CC(=O)Nc1ccccc1OC)Cc1csc(CC(=O)Nc2ccc(C)cc2)n1 | inactive: -2.25%
33 | C=CCn1c(SCC(=O)O)nc2sc(CC)cc2c1=O | inactive: 8.8%
34 | Cc1sc2nc(SCC(=O)NCCOCCO)nc(N)c2c1C | inactive: -1.42%
35 | CC(C(=O)OCC(=O)c1ccc(F)cc1)N1C(=O)C2C3C=CC(C3)C2C1=O (centres undefined) | inactive: 7.09%
36 | COc1cc2cc(CN(CCc3cccc(C)c3)C(=S)NCCCN3CCOCC3)c(=O)[nH]c2cc1OC | inactive: 11.6%
37 | COc1ccc(NC(=O)c2cnc(NS(=O)(=O)c3ccccc3)nc2)cc1 | inactive: 7.43%
38 | CC(=O)N1CCN(S(=O)(=O)c2cccc(C(=O)NNC(=O)COc3c(C)cccc3C)c2)CC1 | inactive: 7.55%
39 | CCOC(=O)CSc1nc2ccsc2c(=O)[nH]1 | inactive: 1.14%
40 | Cc1ccc(S(=O)(=O)/C(C#N)=C/c2ccccc2OCc2ccccc2)cc1 | inactive: 13.4%
41 | O=C(CNCc1cccs1)Nc1ccc(S(=O)(=O)N2CCCCC2)cc1 | inactive: -0.685%
42 | CCOC(=O)NC(=O)/C(C#N)=C\Nc1ccc(Cl)cc1Cl | inactive: 2.99%
43 | COc1ccc(C(=O)CC(=O)C(=O)Nc2cc(OC)ccc2OC)cc1 | inactive: -5.83%
44 | CC(=O)OCCn1c(C)[n+](CCOC(C)=O)c2cc(Cl)c(Cl)cc21 | inactive: -14.2%
45 | O=C(O)CCN=Cc1c(O)c2ccccc2oc1=O | inactive: -2.34%
46 | COc1cc(-c2cc3nc(NCCN(C)C)ccn3n2)cc(OC)c1OC | inactive: -7.99%
47 | Oc1oc(-c2ccccc2Br)nc1C=Nc1ccc(Br)cn1 | inactive: 8.35%
48 | COC(=O)C(=NNc1c(C)n(C)n(-c2ccccc2)c1=O)C(=O)OC | inactive: 0.502%
49 | CCN(CC)S(=O)(=O)c1ccc(C(=O)NCC(=O)NCCCc2ccccc2)cc1 | inactive: 21.5%
50 | CCCn1c(=O)c(C(=O)NCC2CCCO2)c(O)c2ccccc21 (centres undefined) | inactive: -4.17%
51 | O=C(/C=C/Nc1ccc(S(=O)(=O)Nc2cnc3ccccc3n2)cc1)c1ccccc1 | inactive: 23.1%
52 | Cc1cccc(NC(=O)CSc2cc(C(=O)c3nccn3C)c3ccccc3n2)c1 | inactive: -4.63%
53 | CCCc1nc2ccccc2n1CCc1ccccc1 | inactive: 11%
54 | Cc1cccc(C)c1NC(=O)C1CCCN1S(=O)(=O)c1ccccc1 (centres undefined) | inactive: 14.8%

Reference: PubChem BioAssay AID1347073 (National Center for Advancing Translational Sciences (NCATS), 2019)
